Results: PMC4242493
The list shows a part of the results. The list includes weakly bound sequences.

Target: MaxL homodimer (UniProt P61244)
Assay: universal protein-binding microarray (PBM)
Conditions: PBS-based mixture, 10 nM His-tagged protein dimer, 2% milk, 200 ng/uL BSA, 50 ng/uL salmon testes DNA, 0.02% TX-100; detection with Alexa 488 anti-His …; high values mean tight binding; most listed sequences are background and not binding sites; double strand, one strand shown

Chain of UniProt P61244 (P61244 whole entry): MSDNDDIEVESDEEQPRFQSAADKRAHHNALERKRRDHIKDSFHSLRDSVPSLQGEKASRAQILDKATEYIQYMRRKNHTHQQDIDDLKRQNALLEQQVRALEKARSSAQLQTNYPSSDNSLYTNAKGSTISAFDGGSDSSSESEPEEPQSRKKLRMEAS

Sequence | binding signal (normalized occupancy)
AATAGCGA | 0.0756
CCATTATA | 0.084
AGTGTCTA | 0.0734
CTGGTAAC | 0.079
CGCACTGA | 0.0735
AGAAATTA | 0.0722
CTACCAGC | 0.0702
GGTCTCCA | 0.0758
GCATTTCC | 0.0731
GGAGGATA | 0.083
AGGCGTAT | 0.0765
CGGTATCC | 0.0742
ATACAGCA | 0.0878
GAGGCCAA | 0.0753
CATACAAC | 0.0839
AGAACGCC | 0.0718
GATTGTCC | 0.0701
CCGAGAGC | 0.0704
TACACCAA | 0.0763
ACGCTGAG | 0.0804
AGGCATAC | 0.076
AACAGGCA | 0.0786
CTGCCGTA | 0.0736
GGGGGACA | 0.0784
CGCTAAGA | 0.0782

Sequence | binding signal (normalized occupancy)
ATATCAGC | 0.0751
TGTGCGAA | 0.0731
GGATCCCA | 0.0774
ATATCATC | 0.0869
AAGGATTA | 0.0734
AGCCCGGA | 0.0629
AAATACAT | 0.0829
CACGTGCC | 0.521
ATATCATG | 0.093
AAAGTAAC | 0.0747
AGCTAGGA | 0.0692
CTGAGATA | 0.0736
AGAATTCT | 0.0715
CGTATTCC | 0.0751
GTACGAGA | 0.0724
GAGGACGA | 0.0703
CATAGTGC | 0.0754
CCCATAGC | 0.0774
TTCGAAAA | 0.077
CAGTCGTC | 0.0678
GAGTCTGC | 0.0711
TAATGCTA | 0.0758
GTGGTATA | 0.0899
CTGTCTGC | 0.0697
AACTTGGG | 0.0764

Sequence | binding signal (normalized occupancy)
CATAAGCG | 0.0812
CTCTCGGA | 0.074
CTTGTATA | 0.0751
ACGCCTCA | 0.0786
CAACTGTG | 0.07
GCACCTCC | 0.068
CTCCGCCA | 0.0692
CGGTCCAC | 0.0732
GGGAGGAA | 0.0758
CCACTGAG | 0.0735
GAGTCGAA | 0.0727
CTACCGAG | 0.0731
GTTGGGGA | 0.0751
CCCGGTAC | 0.0723
ATAGCCGG | 0.0679
GGTCGGGA | 0.0708
CGCAATAA | 0.0739
ATATCACG | 0.0924
ACTGTTCT | 0.0713
AGGAGAGA | 0.0757
GTTGTTCA | 0.0746
CTGTCGAA | 0.0765
TACGTTCA | 0.0748
ACCCCACT | 0.0842
ATACTCTA | 0.074

Sequence | binding signal (normalized occupancy)
ATTTGAGC | 0.0747
CTAACCGA | 0.0708
AGCCCCGG | 0.0697
ACAGCTCC | 0.0727
AGGCTTAG | 0.0703
CTCAACAA | 0.0728
ATTCATGA | 0.082
ATCAGCCC | 0.0832
CTGTCACA | 0.0849
GAGTTCGA | 0.0753
AAGGTAAA | 0.0718
GCAAAAAC | 0.0756
AGGGAAGC | 0.072
CTTCTGGA | 0.0731
CCCGGCGG | 0.0707
CTAAACAG | 0.0721
CGGAGCAG | 0.0661
AGGAAAGC | 0.0732
ACTTGGAT | 0.0756
AATTTAAT | 0.0753
CAACCATG | 0.0905
CAAAGGGC | 0.0671
GAGTGCCA | 0.0814
CCTCGATC | 0.0708
GCAGAGAC | 0.0728

Sequence | binding signal (normalized occupancy)
CCTGCCGC | 0.0697
ATAGGCGA | 0.0754
ATCCAGTC | 0.0727
ACCAAGAG | 0.0755
GAAGATGC | 0.0756
TACAGCAA | 0.0786
AAAGAAAT | 0.0716
CTTCCAGC | 0.0671
GAAATGAA | 0.0749
CATAGACA | 0.0809
CTGAGCGA | 0.0679
GAGTCGCA | 0.0717
CCGAACCG | 0.0718
CTGTAGGA | 0.0736
CGAGTGCG | 0.0772
ATTACTAA | 0.0798
AGTTCGGG | 0.0708
AGAGCTCT | 0.0713
ATATCAAC | 0.0785
CCGTCAGC | 0.0671
CGTGGCGC | 0.0838
GCGAATCC | 0.0769
AATAGCCC | 0.0752
AGTCCGAT | 0.0714
ACATTGCG | 0.0807

Sequence | binding signal (normalized occupancy)
CAATCGGG | 0.0722
ATGAGGAA | 0.0798
CTAACCAA | 0.0724
ACTAGACG | 0.0772
AGAAAGCC | 0.0708
CATGCCAG | 0.0874
AACATTGC | 0.0715
AGATGATA | 0.0844
CTTATTGC | 0.0763
CACAAAAC | 0.0751
AGCCGAAC | 0.0687
AGCTATTG | 0.0682
ACGGTTGC | 0.0771
ACGTCGAG | 0.0794
CGAGTCAG | 0.0712
ATGGTTCC | 0.0827
AGCCTTAT | 0.081
TGATCAAA | 0.0804
AACTGAAC | 0.0746
CCGCTCTC | 0.0714
CCTCCAAC | 0.0778
GAGCCAAA | 0.0676
CTCCTCTA | 0.0758
AATCCAGG | 0.0741
CGGCTTCC | 0.0699

Sequence | binding signal (normalized occupancy)
AAAGGCCG | 0.0652
ATGTTATC | 0.0868
ATACACAC | 0.094
AGGTCGGG | 0.0708
GGCCCTGA | 0.072
ATGCTGGG | 0.0808
AGTCGTGA | 0.0749
CGGATTGA | 0.0709
AGTATCCC | 0.0806
CGTGTTTC | 0.0838
GGAAGACA | 0.0718
AAGATACT | 0.0762
TATGCATA | 0.0811
AGGGTCCC | 0.0702
CCGCTAGA | 0.0691
CCATGCTC | 0.0989
ACGGATTC | 0.0741
GAATTGCA | 0.0746
CCATCATC | 0.0845
CTAAAACC | 0.0748
AGAACACC | 0.0771
ACACCGGT | 0.076
CCATAGCC | 0.0762
AGTCACAA | 0.0805
GCATCCCC | 0.0804

Sequence | binding signal (normalized occupancy)
CAACCTAA | 0.0744
ATCGCAAA | 0.0676
GCAGACGC | 0.0701
AGCAATTC | 0.0722
GGTAATAC | 0.0772
CAATTCGC | 0.0734
AGCTCTAA | 0.0711
ATAGCTCC | 0.0755
CCCGTAAA | 0.0752
CGAGTCGA | 0.0685
GCATCAAC | 0.073
CTATGCTC | 0.0822
TATCACGA | 0.0859
ACGATGGG | 0.0824
ATCTGTTC | 0.0795
ACCAACTA | 0.0737
AAGATCGT | 0.0775
CTCGTCTA | 0.0671
GCTACTCC | 0.0693
AGAACTAA | 0.0778
GTTCAGTA | 0.0782
CATACATG | 0.0969
GTAGGAAC | 0.0696
AAATACGC | 0.0746
TGCGGAAA | 0.0767

Sequence | binding signal (normalized occupancy)
ATGTACTG | 0.0815
GTAGATGA | 0.0801
ATCTCCCA | 0.0787
CGGTTGCA | 0.0736
CATATATG | 0.0911
AGTTTCTG | 0.074
ATGAGCAC | 0.0858
GCTTCCAA | 0.0699
TAGGGACA | 0.0764
ACTCCAGG | 0.0738
CGATTCAA | 0.0749
ACCGCTCT | 0.0676
ACGTATTC | 0.079
GGAGTACC | 0.0698
GACTCGCC | 0.0703
CCTTTAGA | 0.0706
CTAGCGAG | 0.0671
AAGTGTAT | 0.0806
TCAACAAA | 0.0803
CCGGCGGA | 0.0707
CCAAGGCG | 0.0739
CACCTCAC | 0.0869
ACCGTGAG | 0.0742
CGGTGAGC | 0.0684
AGAGGCCC | 0.0691

Sequence | binding signal (normalized occupancy)
GGTCGAAC | 0.0698
CTCCGCGC | 0.0692
ATGGTGGA | 0.0768
CAATAGTC | 0.0732
GCCCGTTA | 0.0706
CACGGTTC | 0.0767
CCTTCGCC | 0.0711
CCTCGTAG | 0.0748
ACTTGAGC | 0.0721
CAATGTCG | 0.0786
CCCATCTC | 0.0798
AGTTCGGC | 0.0685
CAACACGA | 0.0817
TGGCCGAA | 0.0707
CCTTGGTA | 0.0731
GTATTTCA | 0.0722
CTCCCGCA | 0.0776
AATCATCA | 0.0786
CACGTGCG | 0.641
CCAACTAA | 0.0782
CGTCCCAC | 0.0771
CAAGCTGG | 0.0721
GTACCGTA | 0.075
CCCTCTTA | 0.0705
CCCGGAAC | 0.0679

Sequence | binding signal (normalized occupancy)
AAAAAAGA | 0.0729
GGTCCCGA | 0.0733
TCCGGACA | 0.0755
CGCCGACA | 0.0744
AGTTTGGG | 0.0716
ACTCGACA | 0.0757
ATACGTAA | 0.0767
AACACTAT | 0.082
GCTACCCA | 0.0757
AACATCCG | 0.0746
ATTTGTGG | 0.0793
AACCTAGA | 0.0755
ACGGGTCT | 0.0823
GCACTCGC | 0.0699
AGTTGAAC | 0.0762
ATTTAGGC | 0.0782
ACAATGCT | 0.0805
CCTTAATC | 0.0732
CGAAATGA | 0.068
ATGAGCGG | 0.0799
AGGGTATC | 0.0757
CGTGACGC | 0.0812
CACCGAAC | 0.073
CCTCCTAC | 0.0749
CCTATACC | 0.0768

Sequence | binding signal (normalized occupancy)
ACTGTCGA | 0.0731
GAAGAAGC | 0.0695
CTATCACC | 0.0808
CACCAGAG | 0.0693
AAGGCTCA | 0.0715
CATGGGGG | 0.0995
GGCCTAAC | 0.0765
CTTCGACC | 0.066
GGCTCGAA | 0.0686
ATCATGAG | 0.09
GACACCAA | 0.0751
AAAATGAT | 0.0822
AATGAGTG | 0.08
ACACTCAG | 0.0748
CATCTGGC | 0.0755
GGGATCTA | 0.0799
TGCTGCCA | 0.0769
CTAGAGAA | 0.0731
GCGTGACA | 0.103
AAGCGAAG | 0.0668
CCTGTCCC | 0.0721
ATACGCAA | 0.0775
CGTCGCAC | 0.0746
AATGTACA | 0.0818
CACAGTAC | 0.0755

Sequence | binding signal (normalized occupancy)
GGCCCAAA | 0.0686
CCTCACTC | 0.075
CGGGGATA | 0.0797
CATCCCAC | 0.0809
ATGAGGTC | 0.0876
CCATCCGA | 0.0852
ACCGACAC | 0.0792
GGGTCCAC | 0.0802
AAGCCCGC | 0.0656
AGTTAGAG | 0.0767
CATGGCTA | 0.0864
CACTTCAC | 0.0766
GAACATCA | 0.0813
GTCGAGGA | 0.0733
CGATCCGA | 0.0688
GGATAAAA | 0.0761
CCCCTACA | 0.0778
AACTACAA | 0.0724
CCTCTCAA | 0.0706
GCGTCCCA | 0.0762
CTCGGCAC | 0.0791
ACATAGAC | 0.0779
AACAAGAA | 0.0753
GACGACTA | 0.077
GTGAGAAA | 0.0796

Sequence | binding signal (normalized occupancy)
AAAAGACA | 0.0739
TGGGTCAA | 0.0772
TCCAACGA | 0.0775
AGGACACC | 0.069
GGTCCAAC | 0.0757
CATGGATA | 0.0917
CAATCTCA | 0.0789
AAGGGCGA | 0.0714
CCCCAAGC | 0.0762
CTGCCCTA | 0.0679
GGTCCCAC | 0.0772
CAGAACTA | 0.0728
ACCCCTTC | 0.0827
CGGCCACA | 0.075
GAAGCCGA | 0.0676
AGAGCGAT | 0.0711
GAATGCAC | 0.0772
AGTAGCTG | 0.0691
CACCTATG | 0.0739
